# ± gives the standard deviation. The list shows a part of the results, in another mix than the full data.
# Test system: MIWI (PIWIL1) piRISC loaded with piRNA #1 (30 nt)
# Test: pre-steady-state target cleavage rate (min^-1); MIWI and MILI are mouse PIWI proteins and EfPiwi is from a freshwater sponge; tags in brackets are library labels; higher = faster piRNA-guided slicing of the target
# Details: guide: piRNA #1 5'p-UGAGGUAGUAGGUUGUAUAGUAUCCAGAGG; auxiliary factor: 500 nM mouse GTSF1
# Outline: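 Cleave-'n-Seq reactions paired 0.1 nM transcribed, DNA-blocked target RNA library with 1 nM active affinity-purified piRISC holding one synthetic guide, plus or minus 500 nM GTSF1 partner protein, in HEPES–potassium acetate buffer at 33 °C for 0–8 or 0–960 min. After sequencing of uncleaved targets and normalisation to depth and weakly complementary targets, the pre-steady-state cleavage rate was taken from a burst-and-steady-state fit. Three trials were pooled, and k3 was capped at 0.0001 min^-1.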
row,Sequence,pre-steady-state target cleavage rate
1,GGAGACCUAUCUAUACAACCUACUACCGUCA,0.739 ± 0.071
2,GGACUGGAUACUAUAGUACCUACUACCUCA,1.28 ± 0.11
3,GGAGACCUUACUAUAGCAACCUACUACCUCA,0.109 ± 0.016
4,GGAGAGGAUUCUUUACAACCUACUACCUCA,0.996 ± 0.067
5,GGAGACCUAACUAUACAACGUACAACCUCA,0.00727 ± 0.0033
6,GGAGACCUUACUAUACAACCUACUACACUCA,0.735 ± 0.055
7,GGAGACGAUACUAUUGAACCUACUACCUCA,0.904 ± 0.067
8,GGAGACGAAACUAUACAUCCUACUACCUCA,0.978 ± 0.07
9,GGUCUGGAUACUAUACAAGGAACUACCUCA,0.00269 ± 0.0026
10,GGAGACCUAUCUAUACAUCCUUCUACCUCA,0.0301 ± 0.0063
11,GCUCUGGAUAUUAUACAACCUACUACCUCA,2.06 ± 0.11
12,GGAGACCUAUGUAUACAAGCUACUACCACA,0.057 ± 0.01
13,GGAGAGGAUACUAAAGAACCUACUACCUCA,1.23 ± 0.079
14,GGUCUGGAUUCUAUACUACCUACUACCUCA,1.4 ± 0.12
15,GGUCUGGAUUCUAUUCAACCUACUACCUCA,1.52 ± 0.1
16,CCUCUGCAUACUAUACAACCAACUACCUCA,0.176 ± 0.018
17,GGAGACCUAUGUGAUACAACCUACUACCUCA,0.0112 ± 0.0037
18,GGAGUGGAUACAAUAGAACCUACUACCUCA,1.12 ± 0.056
19,CCUCUGGAAUGUAUACAACCUACUACCUCA,0.505 ± 0.029
20,GCACUGGAUACUAAACAACCUACUACCUCA,1.87 ± 0.1
21,GGUCUGGAUACUAUACAACCUACUUCCUCA,0.0238 ± 0.009
22,GGAGACCAUACUAUACAACAUACUACCUCA,0.939 ± 0.06
23,GGAGACCAUAUUAUACAACCUACUACCUCA,1.77 ± 0.15
24,GGAGACCUUACUAUACAACCUUCUACGUCA,0.274 ± 0.034

# — the supplement of paper PMC10338343
